Measured values published in the supplement of paper PMC10126150.
Sequences with one replicate were seen in a single cluster, so their values are uncertain.

The sequences below were run on ATP (assay: switch fluorescence ratio, 500 uM ATP over buffer (Cy3 cluster intensity, sum of 5 cycles each) (fold (ratio)); higher = stronger signal-on switching upon ATP binding; sequences stand for … in TCGTCGGCAGCGTCAGATGTGTATAAGAGACAGTTTTTTTTTTTTTTTTTTTTTTTTT…TC). Conditions: aptamer strand: ATP DNA aptamer (quencher-CACCTGGGGGAGTATTGCGGAGGAAGG + anchor), 100 nM annealed; ATP concentration: 500 uM; one replicate.
Procedure, shortened: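 Clusters with intensities outside 100-1000 RFU were excluded. The remaining Cy3-labelled switching-strand clusters on a modified Illumina MiSeq flow-cell had been annealed to 100 nM quencher-labelled ATP aptamer and imaged in selection buffer, then after 15 min with 500 uM ATP at 22 °C, for five cycles separated by NaOH stripping and re-annealing. The fluorescence ratio, averaged per switch-domain sequence, is each cluster's summed target-cycle Cy3 intensity over its summed buffer-cycle Cy3 intensity.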
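Note: ATP exposure 15 min at 22 °C before imaging.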

**Q.** For TAAAGAATAT, which switch fluorescence ratio is on record?
**A.** 1

**Q.** For TAAAGAGGAA, which switch fluorescence ratio is on record?
**A.** 0.998

**Q.** Which switch fluorescence ratio does the source give for TAAAGAGGG here?
**A.** 1

**Q.** How did the switch fluorescence ratio turn out when TAAAGGAGAC was run?
**A.** 0.979

**Q.** TAAAGTCCCT was tested. Which switch fluorescence ratio did it give?
**A.** 1.06

**Q.** TAAAGTGGGG was tested. Which switch fluorescence ratio did it give?
**A.** 1.02

**Q.** TAAAGTTGAA was tested. Which switch fluorescence ratio did it give?
**A.** 0.983

**Q.** Which switch fluorescence ratio does the source give for TAAATAACGA here?
**A.** 0.989

**Q.** How did the switch fluorescence ratio turn out when TAAATATTTG was run?
**A.** 1.02

**Q.** TAAATCCTCA was tested. Which switch fluorescence ratio did it give?
**A.** 0.996

**Q.** With TAAATCCTGT as the sequence, how does the switch fluorescence ratio read?
**A.** 1.01

**Q.** How did the switch fluorescence ratio turn out when TAAATCTTGA was run?
**A.** 1.01

**Q.** Which switch fluorescence ratio does the source give for TAAATTACCA here?
**A.** 1.03

**Q.** Which switch fluorescence ratio does the source give for TAAATTCAAA here?
**A.** 0.967

**Q.** For TAAATTTGAT, which switch fluorescence ratio is on record?
**A.** 0.99

**Q.** With TAACAAACGG as the sequence, how does the switch fluorescence ratio read?
**A.** 1.22

**Q.** Which switch fluorescence ratio does the source give for TAACAACTCC here?
**A.** 1.07

**Q.** With TAACACTGT as the sequence, how does the switch fluorescence ratio read?
**A.** 1

**Q.** How did the switch fluorescence ratio turn out when TAACAGGGTA was run?
**A.** 1.03

**Q.** Which switch fluorescence ratio does the source give for TAACATAGTG here?
**A.** 0.962

**Q.** Which switch fluorescence ratio does the source give for TAACATCAGG here?
**A.** 1.08

**Q.** TAACATGCAG was tested. Which switch fluorescence ratio did it give?
**A.** 1.02

**Q.** Which switch fluorescence ratio does the source give for TAACATGGGG here?
**A.** 1

**Q.** With TAACATGTT as the sequence, how does the switch fluorescence ratio read?
**A.** 0.995

**Q.** With TAACCATGCA as the sequence, how does the switch fluorescence ratio read?
**A.** 1.02

**Q.** How did the switch fluorescence ratio turn out when TAACCCATTA was run?
**A.** 1.02

**Q.** With TAACCCGCCA as the sequence, how does the switch fluorescence ratio read?
**A.** 1.23

**Q.** How did the switch fluorescence ratio turn out when TAACCGCTCT was run?
**A.** 1.11

**Q.** For TAACCGGGTA, which switch fluorescence ratio is on record?
**A.** 0.989

**Q.** TAACCGTCCT was tested. Which switch fluorescence ratio did it give?
**A.** 1.37

**Q.** For TAACCTCGCA, which switch fluorescence ratio is on record?
**A.** 1.63

**Q.** With TAACCTGGAT as the sequence, how does the switch fluorescence ratio read?
**A.** 1.21

**Q.** Which switch fluorescence ratio does the source give for TAACGATCTC here?
**A.** 0.975

**Q.** Which switch fluorescence ratio does the source give for TAACGCGAAT here?
**A.** 1.18

**Q.** With TAACGGACGC as the sequence, how does the switch fluorescence ratio read?
**A.** 1.14

**Q.** Which switch fluorescence ratio does the source give for TAACGGGCTT here?
**A.** 0.981

**Q.** How did the switch fluorescence ratio turn out when TAACGGGGCT was run?
**A.** 1.01

**Q.** TAACGGTATT was tested. Which switch fluorescence ratio did it give?
**A.** 1.13

**Q.** For TAACTAGTGT, which switch fluorescence ratio is on record?
**A.** 0.994

**Q.** TAACTCACGC was tested. Which switch fluorescence ratio did it give?
**A.** 1.14

**Q.** With TAACTCCGTT as the sequence, how does the switch fluorescence ratio read?
**A.** 1.06

**Q.** For TAACTGAACT, which switch fluorescence ratio is on record?
**A.** 1.14

**Q.** TAACTGGCA was tested. Which switch fluorescence ratio did it give?
**A.** 0.978

**Q.** Which switch fluorescence ratio does the source give for TAACTGTACG here?
**A.** 1.43

**Q.** How did the switch fluorescence ratio turn out when TAACTGTGCA was run?
**A.** 0.967

**Q.** Which switch fluorescence ratio does the source give for TAACTTATAG here?
**A.** 0.983

**Q.** How did the switch fluorescence ratio turn out when TAACTTGACT was run?
**A.** 1.04

**Q.** Which switch fluorescence ratio does the source give for TAAGAAAGT here?
**A.** 0.932

**Q.** TAAGAATAAT was tested. Which switch fluorescence ratio did it give?
**A.** 1.01

**Q.** Which switch fluorescence ratio does the source give for TAAGACGCTC here?
**A.** 1.24

**Q.** For TAAGATCATG, which switch fluorescence ratio is on record?
**A.** 0.984

**Q.** For TAAGCAGGG, which switch fluorescence ratio is on record?
**A.** 1.03

**Q.** TAAGCAGTGC was tested. Which switch fluorescence ratio did it give?
**A.** 1.43

**Q.** Which switch fluorescence ratio does the source give for TAAGCCAGAC here?
**A.** 1.78

**Q.** For TAAGCGAAAC, which switch fluorescence ratio is on record?
**A.** 1.18

**Q.** For TAAGCTAAAG, which switch fluorescence ratio is on record?
**A.** 0.991

**Q.** Which switch fluorescence ratio does the source give for TAAGCTAGTT here?
**A.** 0.966

**Q.** Which switch fluorescence ratio does the source give for TAAGCTCAAC here?
**A.** 1.03

**Q.** How did the switch fluorescence ratio turn out when TAAGGACCAC was run?
**A.** 1.1

**Q.** With TAAGGACTC as the sequence, how does the switch fluorescence ratio read?
**A.** 1.06

**Q.** TAAGGCGCAG was tested. Which switch fluorescence ratio did it give?
**A.** 0.973

**Q.** TAAGGGCGTC was tested. Which switch fluorescence ratio did it give?
**A.** 1.05

**Q.** Which switch fluorescence ratio does the source give for TAAGGTGGTG here?
**A.** 1.02

**Q.** How did the switch fluorescence ratio turn out when TAAGTAAAGG was run?
**A.** 1.01

**Q.** For TAAGTATACG, which switch fluorescence ratio is on record?
**A.** 0.952

**Q.** Which switch fluorescence ratio does the source give for TAAGTCATAA here?
**A.** 1

**Q.** For TAAGTCGAGC, which switch fluorescence ratio is on record?
**A.** 0.962

**Q.** With TAAGTGACGA as the sequence, how does the switch fluorescence ratio read?
**A.** 1

**Q.** TAAGTGACGC was tested. Which switch fluorescence ratio did it give?
**A.** 1.02

**Q.** How did the switch fluorescence ratio turn out when TAAGTGATTC was run?
**A.** 1.02

**Q.** With TAAGTGCAAT as the sequence, how does the switch fluorescence ratio read?
**A.** 1.1

**Q.** With TAAGTGCTAC as the sequence, how does the switch fluorescence ratio read?
**A.** 1.03

**Q.** With TAAGTGCTTA as the sequence, how does the switch fluorescence ratio read?
**A.** 0.974

**Q.** How did the switch fluorescence ratio turn out when TAAGTTTCAG was run?
**A.** 1.02

**Q.** How did the switch fluorescence ratio turn out when TAAGTTTTG was run?
**A.** 0.973

**Q.** Which switch fluorescence ratio does the source give for TAAGTTTTGT here?
**A.** 1.02

**Q.** Which switch fluorescence ratio does the source give for TAATAAAGGA here?
**A.** 1.03

**Q.** How did the switch fluorescence ratio turn out when TAATAACTGG was run?
**A.** 0.99

**Q.** TAATAACTTG was tested. Which switch fluorescence ratio did it give?
**A.** 1

**Q.** Which switch fluorescence ratio does the source give for TAATACATAT here?
**A.** 1.04

**Q.** Which switch fluorescence ratio does the source give for TAATACTCTT here?
**A.** 1.01

**Q.** How did the switch fluorescence ratio turn out when TAATAGGTAT was run?
**A.** 1

**Q.** For TAATAGTAGC, which switch fluorescence ratio is on record?
**A.** 0.947

**Q.** With TAATATCACG as the sequence, how does the switch fluorescence ratio read?
**A.** 0.989

**Q.** TAATATTCTC was tested. Which switch fluorescence ratio did it give?
**A.** 1.04

**Q.** TAATCAATGC was tested. Which switch fluorescence ratio did it give?
**A.** 1.56

**Q.** TAATCATTTG was tested. Which switch fluorescence ratio did it give?
**A.** 0.99

**Q.** With TAATCGTTGA as the sequence, how does the switch fluorescence ratio read?
**A.** 0.968

**Q.** TAATCTTGAG was tested. Which switch fluorescence ratio did it give?
**A.** 1.02

**Q.** TAATGCTACA was tested. Which switch fluorescence ratio did it give?
**A.** 1

**Q.** For TAATGGAATA, which switch fluorescence ratio is on record?
**A.** 1.05

**Q.** For TAATGGCCAT, which switch fluorescence ratio is on record?
**A.** 1.02

**Q.** How did the switch fluorescence ratio turn out when TAATGGGAGT was run?
**A.** 0.993

**Q.** For TAATGGTCCA, which switch fluorescence ratio is on record?
**A.** 0.943

**Q.** Which switch fluorescence ratio does the source give for TAATGTGACT here?
**A.** 0.971

**Q.** With TAATGTGCCT as the sequence, how does the switch fluorescence ratio read?
**A.** 1.05

**Q.** TAATGTGCGC was tested. Which switch fluorescence ratio did it give?
**A.** 0.94

**Q.** With TAATGTGGCT as the sequence, how does the switch fluorescence ratio read?
**A.** 0.982

**Q.** TAATGTTGG was tested. Which switch fluorescence ratio did it give?
**A.** 1.01

**Q.** Which switch fluorescence ratio does the source give for TAATGTTGGA here?
**A.** 0.998

**Q.** TAATTACTTG was tested. Which switch fluorescence ratio did it give?
**A.** 1
